Drawing on PMC10531988, this text covers binding for 32 molecules.

By UniProt entry, the sequences of proteins in these tests, tags left out.
UniProt Q9NXV2: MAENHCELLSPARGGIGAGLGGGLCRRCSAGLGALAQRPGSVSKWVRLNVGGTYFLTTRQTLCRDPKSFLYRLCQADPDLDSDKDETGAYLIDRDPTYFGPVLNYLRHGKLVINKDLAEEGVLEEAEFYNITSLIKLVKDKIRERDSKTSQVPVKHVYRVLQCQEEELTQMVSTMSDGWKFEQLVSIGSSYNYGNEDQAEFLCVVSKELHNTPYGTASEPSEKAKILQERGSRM
UniProt Q9BSF8: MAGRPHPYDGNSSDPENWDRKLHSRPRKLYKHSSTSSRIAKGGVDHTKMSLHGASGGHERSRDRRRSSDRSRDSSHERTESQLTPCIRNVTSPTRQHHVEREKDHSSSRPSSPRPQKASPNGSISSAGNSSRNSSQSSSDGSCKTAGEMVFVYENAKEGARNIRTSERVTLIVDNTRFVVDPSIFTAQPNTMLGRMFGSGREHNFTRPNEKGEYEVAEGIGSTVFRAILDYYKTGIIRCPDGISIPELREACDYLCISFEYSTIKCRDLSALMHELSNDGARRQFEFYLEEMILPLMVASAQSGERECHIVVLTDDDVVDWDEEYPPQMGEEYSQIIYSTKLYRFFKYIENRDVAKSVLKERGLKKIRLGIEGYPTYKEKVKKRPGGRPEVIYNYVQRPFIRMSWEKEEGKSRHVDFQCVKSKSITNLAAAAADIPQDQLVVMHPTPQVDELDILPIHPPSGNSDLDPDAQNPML
UniProt Q14681: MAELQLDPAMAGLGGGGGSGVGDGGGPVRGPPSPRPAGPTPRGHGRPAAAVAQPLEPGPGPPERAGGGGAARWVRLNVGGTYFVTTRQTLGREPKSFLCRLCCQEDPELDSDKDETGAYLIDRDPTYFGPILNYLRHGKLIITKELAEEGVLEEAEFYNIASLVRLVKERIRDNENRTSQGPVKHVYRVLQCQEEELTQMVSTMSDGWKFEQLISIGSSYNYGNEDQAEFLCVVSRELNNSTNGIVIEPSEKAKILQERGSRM
UniProt Q9Y597: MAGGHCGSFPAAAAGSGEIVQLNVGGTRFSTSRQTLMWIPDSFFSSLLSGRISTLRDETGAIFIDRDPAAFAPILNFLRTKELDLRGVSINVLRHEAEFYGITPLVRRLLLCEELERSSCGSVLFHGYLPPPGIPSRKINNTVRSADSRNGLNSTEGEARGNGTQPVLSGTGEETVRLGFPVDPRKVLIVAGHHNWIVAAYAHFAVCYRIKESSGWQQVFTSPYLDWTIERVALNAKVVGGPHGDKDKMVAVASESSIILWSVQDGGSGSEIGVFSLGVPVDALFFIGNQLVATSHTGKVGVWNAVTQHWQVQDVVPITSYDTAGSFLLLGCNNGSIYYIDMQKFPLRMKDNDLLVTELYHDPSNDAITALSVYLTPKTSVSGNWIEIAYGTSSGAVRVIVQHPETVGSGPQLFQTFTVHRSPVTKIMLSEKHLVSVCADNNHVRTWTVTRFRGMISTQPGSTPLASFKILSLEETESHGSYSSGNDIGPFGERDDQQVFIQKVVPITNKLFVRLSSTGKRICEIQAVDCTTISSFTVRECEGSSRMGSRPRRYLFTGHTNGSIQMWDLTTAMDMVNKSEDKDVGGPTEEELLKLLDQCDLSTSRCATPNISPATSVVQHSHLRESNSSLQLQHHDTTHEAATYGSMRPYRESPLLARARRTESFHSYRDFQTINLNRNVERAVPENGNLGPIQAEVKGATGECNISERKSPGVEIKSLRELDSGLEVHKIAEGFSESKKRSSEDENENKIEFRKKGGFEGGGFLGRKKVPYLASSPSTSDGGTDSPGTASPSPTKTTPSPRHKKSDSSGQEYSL
UniProt Q8WVF5: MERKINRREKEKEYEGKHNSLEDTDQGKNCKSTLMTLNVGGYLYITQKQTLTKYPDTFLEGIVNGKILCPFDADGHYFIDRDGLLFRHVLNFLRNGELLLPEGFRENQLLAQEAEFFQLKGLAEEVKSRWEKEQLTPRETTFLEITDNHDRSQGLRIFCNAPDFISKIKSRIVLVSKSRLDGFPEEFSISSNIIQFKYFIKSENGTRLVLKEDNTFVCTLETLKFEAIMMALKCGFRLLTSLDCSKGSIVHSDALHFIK
UniProt Q6ZWB6: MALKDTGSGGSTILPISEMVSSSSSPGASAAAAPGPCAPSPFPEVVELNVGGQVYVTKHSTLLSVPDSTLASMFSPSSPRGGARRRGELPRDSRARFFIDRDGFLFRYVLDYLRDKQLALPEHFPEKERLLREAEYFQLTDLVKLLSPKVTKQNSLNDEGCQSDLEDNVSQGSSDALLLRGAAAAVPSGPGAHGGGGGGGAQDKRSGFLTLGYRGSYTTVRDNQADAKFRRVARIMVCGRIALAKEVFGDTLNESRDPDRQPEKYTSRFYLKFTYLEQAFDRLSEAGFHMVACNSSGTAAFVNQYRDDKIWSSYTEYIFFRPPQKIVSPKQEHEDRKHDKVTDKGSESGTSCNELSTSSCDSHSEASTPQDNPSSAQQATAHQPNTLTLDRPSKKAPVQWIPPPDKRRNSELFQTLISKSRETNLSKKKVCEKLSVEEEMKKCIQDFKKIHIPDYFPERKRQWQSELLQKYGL
UniProt Q96CX2: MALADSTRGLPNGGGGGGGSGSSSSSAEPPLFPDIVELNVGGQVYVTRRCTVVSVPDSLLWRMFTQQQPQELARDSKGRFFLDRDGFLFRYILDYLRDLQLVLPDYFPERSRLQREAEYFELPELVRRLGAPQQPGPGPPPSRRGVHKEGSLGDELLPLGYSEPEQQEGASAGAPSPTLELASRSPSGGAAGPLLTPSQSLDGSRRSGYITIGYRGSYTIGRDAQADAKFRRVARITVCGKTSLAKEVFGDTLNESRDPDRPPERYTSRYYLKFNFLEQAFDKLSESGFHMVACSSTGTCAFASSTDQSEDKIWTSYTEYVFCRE
UniProt Q68DU8: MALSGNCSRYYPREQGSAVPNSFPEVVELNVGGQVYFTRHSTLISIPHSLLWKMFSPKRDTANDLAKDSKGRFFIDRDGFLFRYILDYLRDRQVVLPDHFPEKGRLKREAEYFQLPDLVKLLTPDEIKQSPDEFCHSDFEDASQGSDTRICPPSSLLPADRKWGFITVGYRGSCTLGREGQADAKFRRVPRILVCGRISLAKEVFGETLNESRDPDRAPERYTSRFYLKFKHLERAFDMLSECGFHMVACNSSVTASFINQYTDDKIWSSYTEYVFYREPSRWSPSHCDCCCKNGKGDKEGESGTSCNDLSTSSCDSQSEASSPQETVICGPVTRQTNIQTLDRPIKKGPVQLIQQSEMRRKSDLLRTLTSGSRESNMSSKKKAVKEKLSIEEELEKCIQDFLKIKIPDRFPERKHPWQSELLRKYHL
UniProt Q8N5Z5: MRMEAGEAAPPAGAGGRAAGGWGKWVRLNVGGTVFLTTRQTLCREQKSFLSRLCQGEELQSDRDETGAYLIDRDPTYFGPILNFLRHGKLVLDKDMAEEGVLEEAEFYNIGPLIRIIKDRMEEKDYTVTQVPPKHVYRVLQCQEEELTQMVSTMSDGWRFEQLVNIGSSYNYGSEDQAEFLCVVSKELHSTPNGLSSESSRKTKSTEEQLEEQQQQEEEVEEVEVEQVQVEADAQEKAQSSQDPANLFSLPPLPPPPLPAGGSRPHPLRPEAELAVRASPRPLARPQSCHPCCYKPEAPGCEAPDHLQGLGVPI
UniProt Q8TBC3: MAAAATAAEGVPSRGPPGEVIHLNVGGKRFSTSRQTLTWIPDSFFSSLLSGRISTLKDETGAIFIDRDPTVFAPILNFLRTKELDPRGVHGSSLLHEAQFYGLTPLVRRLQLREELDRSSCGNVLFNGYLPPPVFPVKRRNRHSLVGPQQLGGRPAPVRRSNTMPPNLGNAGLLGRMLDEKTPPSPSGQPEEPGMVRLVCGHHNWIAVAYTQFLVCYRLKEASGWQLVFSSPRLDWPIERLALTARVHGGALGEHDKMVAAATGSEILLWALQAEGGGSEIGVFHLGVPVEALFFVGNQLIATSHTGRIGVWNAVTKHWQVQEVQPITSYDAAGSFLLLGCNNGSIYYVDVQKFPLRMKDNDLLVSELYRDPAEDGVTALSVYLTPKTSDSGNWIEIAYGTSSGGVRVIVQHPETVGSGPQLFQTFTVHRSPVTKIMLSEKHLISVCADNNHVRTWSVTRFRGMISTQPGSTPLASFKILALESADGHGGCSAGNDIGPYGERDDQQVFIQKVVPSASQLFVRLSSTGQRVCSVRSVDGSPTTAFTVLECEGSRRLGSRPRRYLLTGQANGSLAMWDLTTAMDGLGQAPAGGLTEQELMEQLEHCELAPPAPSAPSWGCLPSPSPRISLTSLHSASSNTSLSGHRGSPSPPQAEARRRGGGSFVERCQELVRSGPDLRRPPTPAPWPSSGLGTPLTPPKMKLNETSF
UniProt Q6PI47: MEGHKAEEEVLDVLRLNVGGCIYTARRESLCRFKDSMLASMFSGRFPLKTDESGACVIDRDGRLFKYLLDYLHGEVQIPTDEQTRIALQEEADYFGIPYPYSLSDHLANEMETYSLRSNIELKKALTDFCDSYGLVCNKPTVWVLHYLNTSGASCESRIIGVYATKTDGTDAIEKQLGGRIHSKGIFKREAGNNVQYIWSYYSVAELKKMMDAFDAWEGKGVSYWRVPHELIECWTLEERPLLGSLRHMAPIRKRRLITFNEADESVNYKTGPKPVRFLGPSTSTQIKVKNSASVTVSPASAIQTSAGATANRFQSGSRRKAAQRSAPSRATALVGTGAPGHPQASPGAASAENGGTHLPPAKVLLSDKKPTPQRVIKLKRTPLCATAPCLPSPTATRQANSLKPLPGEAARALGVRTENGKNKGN
UniProt Q7Z5Y7: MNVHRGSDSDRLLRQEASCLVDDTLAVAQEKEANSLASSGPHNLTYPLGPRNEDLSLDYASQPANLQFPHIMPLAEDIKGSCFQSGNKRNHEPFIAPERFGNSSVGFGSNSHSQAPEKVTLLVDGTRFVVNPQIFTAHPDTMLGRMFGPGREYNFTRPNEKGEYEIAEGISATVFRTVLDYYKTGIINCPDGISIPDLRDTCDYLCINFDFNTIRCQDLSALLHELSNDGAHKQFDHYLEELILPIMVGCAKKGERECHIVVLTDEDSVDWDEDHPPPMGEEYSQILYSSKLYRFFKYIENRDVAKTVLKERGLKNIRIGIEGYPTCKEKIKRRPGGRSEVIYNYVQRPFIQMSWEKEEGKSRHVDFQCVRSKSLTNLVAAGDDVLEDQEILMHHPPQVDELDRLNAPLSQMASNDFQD

First the molecules themselves.
B1: KCNRG-Nluc (protein, UniProt Q8N5I3 1-272)
chain: MSSQELVTLNVGGKIFTTRFSTIKQFPASRLARMLDGRDQEFKMVGGQIFVDRDGDLFSFILDFLRTHQLLLPTEFSDYLRLQREALFYELRSLVDLLNPYLLQPRPALVEVHFLSRNTQAFFRVFGSCSKTIEMLTGRITVFTEQPSAPTWNGNFFPPQMTLLPLPPQRPSYHDLVFQCGSDSTTDNQTGVRYVSIKPDNRKLANGTNVLGLLIDTLLKEGFHLVSTRTVSSEDKTECYSFERIKSPEVLITNETPKPETIIIPEQSQIKK
B2: KCTD10-Nluc (protein, UniProt Q9H3F6 1-313)
chain: MEEMSGESVVSSAVPAAATRTTSFKGTSPSSKYVKLNVGGALYYTTMQTLTKQDTMLKAMFSGRMEVLTDSEGWILIDRCGKHFGTILNYLRDGAVPLPESRREIEELLAEAKYYLVQGLVEECQAALQNKDTYEPFCKVPVITSSKEEQKLIATSNKPAVKLLYNRSNNKYSYTSNSDDNMLKNIELFDKLSLRFNGRVLFIKDVIGDEICCWSFYGQGRKIAEVCCTSIVYATEKKQTKVEFPEARIYEETLNILLYEAQDGRGPDNALLEATGGAAGRSHHLDEDEERERIERVRRIHIKRPDDRAHLHQ
B3: KCTD9-Nluc (protein, UniProt Q7L273 1-389)
chain: MRRVTLFLNGSPKNGKVVAVYGTLSDLLSVASSKLGIKATSVYNGKGGLIDDIALIRDDDVLFVCEGEPFIDPQTDSKPPEGLLGFHTDWLTLNVGGRYFTTTRSTLVNKEPDSMLAHMFKDKGVWGNKQDHRGAFLIDRSPEYFEPILNYLRHGQLIVNDGINLLGVLEEARFFGIDSLIEHLEVAIKNSQPPEDHSPISRKEFVRFLLATPTKSELRCQGLNFSGADLSRLDLRYINFKMANLSRCNLAHANLCCANLERADLSGSVLDCANLQGVKMLCSNAEGASLKLCNFEDPSGLKANLEGANLKGVDMEGSQMTGINLRVATLKNAKLKNCNLRGATLAGTDLENCDLSGCDLQEANLRGSNVKGAIFEEMLTPLHMSQSVR
B4: KCTD21-Nluc (protein, UniProt Q4G0X4 1-260)
chain: MSDPITLNVGGKLYTTSLATLTSFPDSMLGAMFSGKMPTKRDSQGNCFIDRDGKVFRYILNFLRTSHLDLPEDFQEMGLLRREADFYQVQPLIEALQEKEVELSKAEKNAMLNITLNQRVQTVHFTVREAPQIYSLSSSSMEVFNANIFSTSCLFLKLLGSKLFYCSNGNLSSITSHLQDPNHLTLDWVANVEGLPEEEYTKQNLKRLWVVPANKQINSFQVFVEEVLKIALSDGFCIDSSHPHALDFMNNKIIRLIRYR
B5: KCTD11-Nluc (protein, UniProt Q693B1 1-232)
chain: MLGAMFRAGTPMPPNLNSQGGGHYFIDRDGKAFRHILNFLRLGRLDLPRGYGETALLRAEADFYQIRPLLDALRELEASQGTPAPTAALLHADVDVSPRLVHFSARRGPHHYELSSVQVDTFRANLFCTDSECLGALRARFGVASGDRAEGSPHFHLEWAPRPVELPEVEYGRLGLQPLWTGGPGERREVVGTPSFLEEVLRVALEHGFRLDSVFPDPEDLLNSRSLRFVRH
B6: KCTD19-Nluc (protein, UniProt Q17RG1 1-926)
chain: MEESGMAHESAEDLFHFNVGGWHFSVPRSKLSQFPDSLLWKEASALTSSESQRLFIDRDGSTFRHVHYYLYTSKLSFSSCAELNLLYEQALGLQLMPLLQTLDNLKEGKHHLRVRPADLPVAERASLNYWRTWKCISKPSEFPIKSPAFTGLHDKAPLGLMDTPLLDTEEEVHYCFLPLDLVAKYPSLVTEDNLLWLAETVALIECECSEFRFIVNFLRSQKILLPDNFSNIDVLEAEVEILEIPALTEAVRWYRMNMGGCSPTTCSPLSPGKGARTASLESVKPLYTMALGLLVKYPDSALGQLRIESTLDGSRLYITGNGVLFQHVKNWLGTCRLPLTETISEVYELCAFLDKRDITYEPIKVALKTHLEPRTLAPMDVLNEWTAEITVYSPQQIIKVYVGSHWYATTLQTLLKYPELLSNPQRVYWITYGQTLLIHGDGQMFRHILNFLRLGKLFLPSEFKEWPLFCQEVEEYHIPSLSEALAQCEAYKSWTQEKESENEEAFSIRRLHVVTEGPGSLVEFSRDTKETTAYMPVDFEDCSDRTPWNKAKGNLVRSNQMDEAEQYTRPIQVSLCRNAKRAGNPSTYSHCRGLCTNPGHWGSHPESPPKKKCTTINLTQKSETKDPPATPMQKLISLVREWDMVNCKQWEFQPLTATRSSPLEEATLQLPLGSEAASQPSTSAAWKAHSTASEKDPGPQAGAGAGAKDKGPEPTFKPYLPPKRAGTLKDWSKQRTKERESPAPEQPLPEASEVDSLGVILKVTHPPVVGSDGFCMFFEDSIIYTTEMDNLRHTTPTASPQPQEVTFLSFSLSWEEMFYAQKCHCFLADIIMDSIRQKDPKAITAKVVSLANRLWTLHISPKQFVVDLLAITGFKDDRHTQERLYSWVELTLPFARKYGRCMDLLIQRGLSRSVSYSILGKYLQED
B7: KCNRG-myc-flag (protein, UniProt Q8N5I3 1-272)
chain: B1 chain
B8: KCTD14-myc-flag (protein, UniProt Q9BQ13 1-255)
chain: MWQGCAVERPVGRMTSQTPLPQSPRPRRPTMSTVVELNVGGEFHTTTLGTLRKFPGSKLAEMFSSLAKASTDAEGRFFIDRPSTYFRPILDYLRTGQVPTQHIPEVYREAQFYEIKPLVKLLEDMPQIFGEQVSRKQFLLQVPGYSENLELMVRLARAEAITARKSSVLVCLVETEEQDAYYSEVLCFLQDKKMFKSVVKFGPWKAVLDNSDLMHCLEMDIKAQGYKVFSKFYLTYPTKRNEFHFNIYSFTFTWW
B9: KCTD10-myc-flag (protein, UniProt Q9H3F6 1-313)
chain: B2 chain
B10: KCTD21-myc-flag (protein, UniProt Q4G0X4 1-260)
chain: B4 chain
B11: KCTD15-myc-flag (protein, UniProt Q96SI1 1-283)
chain: MPHRKERPSGSSLHTHGSTGTAEGGNMSRLSLTRSPVSPLAAQGIPLPAQLTKSNAPVHIDVGGHMYTSSLATLTKYPDSRISRLFNGTEPIVLDSLKQHYFIDRDGEIFRYVLSFLRTSKLLLPDDFKDFSLLYEEARYYQLQPMVRELERWQQEQEQRRRSRACDCLVVRVTPDLGERIALSGEKALIEEVFPETGDVMCNSVNAGWNQDPTHVIRFPLNGYCRLNSVQVLERLFQRGFSVAASCGGGVDSSQFSEYVLCREERRPQPTPTAVRIKQEPLD

No constants are given. Whether binding was seen depends on the method and setting. Binding seen in cells or lysates may run through a third protein. Some binding calls cover weakened binding; strength is not graded here. For some assays here: Sequences can lack the tags named with a protein.

In one experiment the target is KCTD5-Venus (human) (UniProt Q9NXV2). Nature of the experiment: FRET or BRET; live HEK293 cells co-transfected 1:1 with KCTD-Nluc (donor) and KCTD5-Venus (acceptor); raw BRET ratio 530 nm/460 nm; room temperature; compared with Nluc-Cyto. (In general: In BRET a luciferase serves as donor, and the signal depends on an acceptor being close.)
As for BTBD10-Nluc (from UniProt Q9BSF8 1-475), the binding result is given as “binds”. Still for that read-out and setting: the result for KCTD2-Nluc (from UniProt Q14681 1-263) reads “binds”; that for KCTD3-Nluc (from UniProt Q9Y597 1-815), “binds”. On to KCTD4-Nluc (from UniProt Q8WVF5 1-259), for which the binding result is “no binding”. Still for that read-out and setting: then KCTD5-Nluc (from UniProt Q9NXV2 1-234), with “binds”; and KCTD8-Nluc (from UniProt Q6ZWB6 1-473), with “binds”; and KCTD12-Nluc (from UniProt Q96CX2 1-325), with “no binding”. On the same count and under the same terms, the result for KCTD16-Nluc (from UniProt Q68DU8 1-428) reads “binds”; that for KCTD17-Nluc (from UniProt Q8N5Z5 1-314), “binds”; that for SHKBP1-Nluc (from UniProt Q8TBC3 1-707), “binds”. On the same count and under the same terms, the result for B1 reads “binds”. Turning to B2, the binding result is reported as “binds”. Take B3: the binding entry was “no binding”. Same read-out and setting: the result for B4 reads “binds”. The same measure, in the same setting: then B5, with “no binding”; and B6, with “no binding”.

Another experiment shares this target. In words: co-IP; HEK293 cells co-transfected 1:1; lysate (1% Triton-X, 150 mM NaCl); IP of Venus-tagged KCTD5 or its fragments with anti-GFP antibody and Dynabeads Protein G, 2 h, +4 °C; Western blot with anti-myc antibody. In general terms: A western blot detects proteins with antibodies after separation by electrophoresis.
“BTBD10-myc-flag (from UniProt Q9BSF8 1-475)”: the binding entry is “binds”. The same measure, in the same setting: the result for “KCTD2-myc-flag (from UniProt Q14681 1-263)” reads “binds”. The same measure, in the same setting: then “KCTD3-myc-flag (from UniProt Q9Y597 1-815)”, with “binds”. Still for that read-out and setting: the result for “KCTD4-myc-flag (from UniProt Q8WVF5 1-259)” reads “no binding”; that for “KCTD8-myc-flag (from UniProt Q6ZWB6 1-473)”, “binds”. Turning to “KCTD12-myc-flag (from UniProt Q96CX2 1-325)”, the binding result is reported as “no binding”. With “KCTD16-myc-flag (from UniProt Q68DU8 1-428)”, the binding entry is given as “binds”. Still for that read-out and setting: the result for “KCTD17-myc-flag (from UniProt Q8N5Z5 1-314)” reads “binds”; that for “KCTD18-myc-flag (from UniProt Q6PI47 1-426)”, “binds weakly”; that for “KCTD20-myc-flag (from UniProt Q7Z5Y7 1-419)”, “binds”. Same read-out and setting: then “SHKBP1-myc-flag (from UniProt Q8TBC3 1-707)”, with “binds”.

Another experiment has the same target. The description is as above. This is another data set of the same source.
For the molecule B7, the binding result is “binds”.

For the molecule B8, the binding entry is recorded as “binds”. Still for that read-out and setting: then B9, with “binds”; and B10, with “binds”; and B11, with “binds”.
